# PubChem BioAssay AID485344 (National Center for Advancing Translational Sciences (NCATS), 2010)
# Out of some 340,000 compounds screened, about 6,900 (2%) were called active. No stated cut-off is given here; in the data, active means inhibition above about 30%; inactive means below that, where a call was filed. This is a selection; strong and weak results do not stand in their true shares. The source gives no active or inactive call for entries shown without one. The source holds several records for some structures; these can differ, active in one and inactive in another.
# Molecular target: D(2) dopamine receptor (Homo sapiens) (UniProt P14416)
# Experiment: HTS Assay for Allosteric Antagonists of the Human D2 Dopamine Receptor: Primary Screen for Antagonists; further: 0% is about no effect
# Settings: HEK293 TREx D2 cells, calcium flux, dopamine EC80; at 10 µM; stronger effect = higher value
# Outline: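 Calcium flux kinetic readout in an inducible HEK293 TREx D2 line plated overnight at 30 C. After 180 s compound exposure, an EC80 dopamine challenge follows with another 180 s kinetic read to detect antagonism.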
# UniProt P14416, sequence (P14416 whole entry, looked up): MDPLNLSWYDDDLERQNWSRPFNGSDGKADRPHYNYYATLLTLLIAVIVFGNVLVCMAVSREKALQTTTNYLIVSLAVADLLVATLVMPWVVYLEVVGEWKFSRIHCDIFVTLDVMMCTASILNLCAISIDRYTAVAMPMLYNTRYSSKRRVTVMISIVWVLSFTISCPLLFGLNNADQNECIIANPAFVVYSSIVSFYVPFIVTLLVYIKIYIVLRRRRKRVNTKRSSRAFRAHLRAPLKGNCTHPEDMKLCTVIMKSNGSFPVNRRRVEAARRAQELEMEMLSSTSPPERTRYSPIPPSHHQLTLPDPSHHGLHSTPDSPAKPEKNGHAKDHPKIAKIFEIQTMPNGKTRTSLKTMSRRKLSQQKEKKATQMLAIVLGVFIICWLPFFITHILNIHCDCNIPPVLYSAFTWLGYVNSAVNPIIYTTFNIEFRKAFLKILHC
row,SMILES,inhibition
1,CC1CCN(C(=O)CN2c3ccc(Br)cc3-c3ccccc3S2(=O)=O)CC1,18.4%
2,Cc1cccc(NC(=O)CSc2ncc3c(n2)-c2cc(Cl)ccc2N(C)S3(=O)=O)c1C,3.08%
3,CC(C)c1ccc(Nc2cc(C(=O)NCCCN(C)Cc3ccccc3)c3ccccc3n2)cc1,23.6%
4,CC(=O)N1CCN(C(=O)C(=O)Nc2c3c(nn2-c2ccc(Cl)cc2)CSC3)CC1,-11.7%
5,Cc1oc(-c2ccc(C(=O)NCCCOC(C)C)cc2)nc1CS(=O)(=O)c1ccccc1,4.06%
6,COc1ccc(C(=O)NCc2ccc3c(c2)CCN3C(C)=O)cc1OC,-16.2%
7,CCn1ccc2cc(S(=O)(=O)N3CCCN(C(=O)Nc4ccc(C)cc4Cl)CC3)ccc21,-26.6%
8,COc1cc2c(cc1OC)n(CC(=O)Nc1ccc(C)cc1C)c(=O)n1nc(-c3ccccc3)nc21,4.23%
9,Cn1c(=O)n(Cc2ccccc2Cl)c(=O)c2c1nc1n2CCN1c1ccccc1,18.1%
10,Cc1ccc(C(=O)COC(=O)CCCC(=O)Nc2cc(C(F)(F)F)ccc2Cl)cc1C,-7.85%
11,Cc1c(Cl)cccc1NC(=O)CSc1nc(=O)n(Cc2ccncc2)c2c1CCC2,-26.3%
12,CCc1nn(CCCN2CCN(c3cccc(Cl)c3)CC2)c(=O)n1CCOc1ccccc1,active: 47%
13,CC(C)Cc1nn2c(=O)cc(COC(=O)c3cccc(NC(=O)c4cccs4)c3)nc2s1,5.16%
14,COc1ccc(-c2nsc(NC(=O)COc3ccccc3OC)n2)cc1,-6.96%
15,O=C(c1ccc(=O)[nH]c1)N(Cc1ccco1)C1(C(=O)NC2CCCCC2)CCCCC1,active: 37.6%
16,CCC1=C(OC(=O)N(CC)CC)N2C(=O)OC(=NCC(=O)OC)[C@]2(Cc2ccccc2)[C@H]2C1=CC[C@H]1C(=O)NC(=O)[C@H]12,active: 53.2%
17,COc1ccccc1CNC(=O)CCCn1c(=O)c2ccccc2n(CC(=O)Nc2ccc(C)cc2Cl)c1=O,5.38%
18,COc1ccc(NC(=O)Cn2c(=O)n(Cc3nc(C)no3)c(=O)c3cc4c(cc32)OCO4)cc1,-4.68%
19,COc1ccc(NC(=O)c2cc3c(=O)n(Cc4cccs4)ccc3nc2C)c(OC)c1,11.5%
20,Cc1cc(C)cc(NS(=O)(=O)c2ccc(-c3cc(C)no3)s2)c1,6.54%
21,Cc1cc(C)c(NC(=O)C2CCN(C(=O)N3CC(C)Oc4ccc(Cl)cc43)CC2)c(C)c1 (stereo not drawn),-22.2%
22,Cc1ccc(-c2nc3cc(Cl)ccc3o2)cc1NC(=O)c1cc2ccccc2o1,-6.22%
23,Cc1c(C(=O)N(C)C)sc2c1c(=O)n(-c1ccccc1C(F)(F)F)c(=O)n2Cc1ccccc1C#N,6.85%
24,CCOC(=O)c1ccc(NC(=O)C2=C(C)C(=O)OC23CCCCCC3)cc1,-26.1%

row,SMILES,inhibition
1,Cc1cc(-c2ccc(S(=O)(=O)Nc3cccc(C(F)(F)F)c3)s2)on1,-4.77%
2,CC(C)Sc1ncc(Cl)c(C(=O)Nc2nc3ccc(S(C)(=O)=O)cc3s2)n1,-26.9%
3,O=C(c1ccccc1Cl)N1CCCC(c2nc3c(nnn3Cc3ccc(F)cc3F)c(=O)[nH]2)C1 (stereo not drawn),17.6%
4,CN(C(=O)CSc1nc2ccc(NC(=O)COc3ccc(F)cc3)cc2s1)c1ccccc1,-7.08%
5,CCOC(=O)c1c(C)[nH]c(C)c1S(=O)(=O)N(C)CC(=O)Nc1cccc(Cl)c1C,6.47%
6,Cc1c(Cl)cccc1NC(=O)c1cc(-c2cccs2)on1,6.16%
7,Cc1c(C(=O)N2CCC(C)CC2)c(S(=O)(=O)Nc2cccc(C#N)c2)c(C)n1C,-8.81%
8,Cc1ccc(NCc2cccn2-c2nnc(N3CCC(C(=O)NCc4ccccc4C)CC3)s2)cc1,9.73%
9,COc1ccc(CN2CCCN(CC(=O)Nc3ccc(Br)cc3F)S2(=O)=O)cc1,7%
10,Cc1ccc(-n2ncc(C(=O)NCc3ccc4c(c3)OCO4)c2C2CCN(C(=O)OC(C)(C)C)CC2)cc1C,1.12%
11,COc1ccc(C(=O)N2CCCCC2CCN2CCOCC2)cc1 (stereo not drawn),2.5%
12,CC1=C(c2ccc(C)c(C)c2)S(=O)(=O)N=C1N1CCN(c2cccc(C)c2)C(C)C1 (stereo not drawn),14%
13,CCN(CCCNC(=O)CSc1cc(=O)n(C)c2cc(Cl)ccc12)c1ccccc1,-19.2%
14,CN1CCN(CCNC(=O)c2cnn(-c3cccc(Cl)c3)c2C2CCN(C(=O)OC(C)(C)C)CC2)CC1,-7.05%
15,Cc1cc(=O)n2nc(N3CCC(C(=O)NCc4ccccc4F)CC3)sc2n1,14.7%
16,COc1ccc(CN(C)c2ccc(-c3nc(C)no3)cc2[N+](=O)[O-])cc1,-8.54%
17,Cc1ccc(NC(=O)CSc2ncc3c(n2)-c2ccccc2N(C)S3(=O)=O)c(Cl)c1,4.41%
18,CCC(CC)C(=O)Nc1cccc(-c2nc3ncccn3c2C)c1,-3.05%
19,CCc1ccc(CNC(=O)Cn2nc(C)c3c(C)n(-c4ccc(C)cc4)nc3c2=O)cc1,5.08%
20,COc1cccc(-c2nn(C)c3sc(C(=O)NCc4ccc(C)cc4)cc23)c1,-7.74%
21,CCN(CC)C(=O)c1sc2c(c1C)c(=O)n(-c1ccc(OC)cc1OC)c(=O)n2Cc1cc(C)ccc1C,11.5%
22,CCOC(=O)c1c(C)n(C)c2ccc(OCC(O)CNCCc3ccccc3)cc12 (stereo not drawn),active: 30.7%
23,CC(=O)N1c2ccc(S(=O)(=O)NCc3ccc(Cl)cc3)cc2CC1C (stereo not drawn),-17.8%
24,CC(=O)Nc1ccccc1OCc1cc(=O)n2c(C)csc2n1,-0.857%

row,SMILES,inhibition
1,Cc1ccc(-c2nc(C)c(CCNC(=O)C(=O)Nc3ccc(C)c(Cl)c3)s2)cc1,-27.7%
2,CCOC(=O)c1cc(S(=O)(=O)NCc2ccc(F)cc2)[nH]n1,13.9%
3,COCCCNC(=O)CSc1nc(-c2ccc(OC)cc2)[nH]c1-c1ccc(OC)cc1,-0.151%
4,COc1ccc2oc(=O)cc(CN3CCN(c4ccccc4OC)CC3)c2c1,3.98%
5,CCOC(=O)c1c(C)[nH]c(CCC(=O)Nc2ccccc2OCC)c1C,-27.6%
6,CC(=O)N1CCCc2cc(S(=O)(=O)N3CCC(C(=O)NCc4ccccc4Cl)CC3)ccc21,-13.7%
7,COc1ccc(C(=O)Nc2cc3cc(Cl)ccc3oc2=O)cc1OC,-1.63%
8,Cc1nn(CCC(=O)N2CCN(c3ccccc3F)CC2)c(C)c1S(=O)(=O)N1CCCC1,2.71%
9,NS(=O)(=O)c1ccc(NC(=O)COC(=O)c2ccco2)cc1,active: 38.5%
10,CN(C)c1ccc(CNC(=O)Cn2c(=O)oc3cc(S(=O)(=O)NCc4ccccc4)ccc32)cc1,-1.67%
11,Cc1ccccc1NS(=O)(=O)c1ccc(C)c(NS(C)(=O)=O)c1C,active: 32.8%
12,CCCC12CN3CC(C)(CN(C1)C3c1cn(CC)c3ccccc13)C2=O (stereo not drawn),1.21%
13,CCN1CCN(c2cc(C)c3cc(NC(=O)c4cc(Br)ccc4Cl)ccc3n2)CC1,-4.75%
14,CCOc1ccccc1CNC(=O)CCCn1nc(C)c2sc3ccccc3c2c1=O,12.9%
15,Cc1ccc(OCc2ccc(-c3nc(C#N)c(N4CCN(c5cccc(Cl)c5)CC4)o3)o2)cc1,-0.221%
16,Cc1cccc(CSc2nc3ccncc3n2Cc2ccc(C(=O)O)cc2)c1,-14.2%
17,COc1ccccc1NC(=O)Cn1c(=O)n(CCc2ccccc2)c(=O)c2sc3ccccc3c21,3.19%
18,COc1cc(NC(=O)Cn2nc(C(F)(F)F)c3c2CCCC3)cc(OC)c1OC,-1.02%
19,Cc1cccc(OCC(=O)Nc2c(C(=O)N3CCN(c4ccccc4)CC3)oc3ccccc23)c1,-8.43%
20,COc1ccc(N2CCN(c3oc(-c4ccccc4C)nc3S(=O)(=O)c3ccccc3)CC2)cc1,2.66%
21,COc1ccc(/C=C2\SC(N3CCc4ccccc4C3)=NC2=O)cc1OC,active: 53.1%
22,C=CCc1ccc(OCCCCN2CC(C)CC(C)C2)c(OC)c1 (stereo not drawn),active: 38.5%
23,CCc1nc2ccccc2n1CCCCOc1ccc(Cl)cc1,-14.6%
24,COc1cc(NC(=O)Cn2nc(Cc3cccnc3)c3ccccc3c2=O)cc(OC)c1OC,-0.388%

row,SMILES,inhibition
1,CCCCN(CCCC)S(=O)(=O)c1ccc(C(=O)Nc2sc3c(c2C(N)=O)CCN(CC)C3)cc1,-15.8%
2,CC(C)c1ccc(C(=O)Nc2ccc(-c3nc4ccccc4s3)c(Cl)c2)cc1,5.58%
3,Cn1cc(S(=O)(=O)N2CCCCCC2)cc1C(=O)Nc1ccccc1F,21.4%
4,COc1ccc(-c2nc(Cn3c(SCc4cccc(F)c4)nc4cccnc43)c(C)o2)cc1,-3.22%
5,COc1cccc(C(=O)NCC(c2ccc(N(C)C)cc2)N2CCc3ccccc32)c1OC (stereo not drawn),-20%
6,Cc1cccc(C)c1NC(=O)N1CCC(C(N)=O)(N2CCCCC2)CC1,-3.92%
7,O=C(Nc1ccc(F)cc1F)c1cc2ccc3cccnc3c2[nH]1,9.16%
8,CCOC(=O)c1ccc(NC(=O)c2c(NCc3cccc(OC)c3)sc3c2CCC3)cc1,9.9%
9,Cc1ccccc1Nc1cc(C(=O)NC2CCC(C)CC2)c2ccccc2n1 (stereo not drawn),4.09%
10,COc1cccc(NC(=O)C2CC(=O)N(Cc3ccco3)C2)c1 (stereo not drawn),active: 36.6%
11,COC(=O)c1cc(OC)c(OC)c(OC)c1NC(=O)c1cc(=O)n(C)c(=O)n1C,14.7%
12,CCOc1ccc(NC(=O)CSc2ccc3ccccc3n2)cc1,12.4%
13,COCCCNC(=O)CN1C(=O)COc2ccc(S(=O)(=O)N3CCOCC3)cc21,5.61%
14,COC(=O)CSCc1nc(-c2ccc(C(=O)OC)cc2)oc1C,-3.24%
15,O=C(CCNS(=O)(=O)c1cccc2nonc12)Nc1ccc(F)cc1,12.4%
16,COc1ccc(N2CCN(C(=O)c3cn(C4CCCCC4)c(=O)c4c3c3ccccc3n4C)CC2)cc1,-6.44%
17,CCOc1ccccc1NC(=O)c1c(NC(=O)Cc2ccccc2)sc2c1CCCC2,-9.42%
18,Cc1cc(C)c(S(=O)(=O)Nc2ccc(-c3ccc(N4CCCCC4)nn3)cc2)c(C)c1,6.02%
19,Cn1cc(C(=O)N2CCN(c3cccc(Cl)c3)CC2)c(=O)c2cc(S(=O)(=O)N3CCCC3)ccc21,14.4%
20,COc1ccc(C)cc1NC(=O)CN1CCCN(S(=O)(=O)c2ccc(Br)cc2)CC1,-7.83%
21,COc1cc2c(cc1OC)C(COc1ccccc1OC)N(C(=O)c1ccc(S(=O)(=O)N3CCCC3)cc1)CC2 (stereo not drawn),-16.3%
